Experimental data from paper PMC12040169 (PLOS Biology, 2025).
The other results are listed elsewhere or left out.

System: T1, C. trachomatis L2/434/Bu expressing GFP (CTL2-GFP)
T1 construct: L2/434/Bu GFP intracellular growth in HeLa cells
Design: species or system HeLa; C. trachomatis total inclusion area by high-content imaging, normalised to DMSO
Details: total inclusion area; 28.5 h, 10 µM; inhibitor
Outline: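 High-content images of fixed, Hoechst-stained infected cultures supply inclusion area and count (growth) plus nuclei number (viability), complementing bulk GFP/resorufin fluorescence. MIC determination is unchanged from the primary assay.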

Structure (SMILES) | % of control remaining
CN(C)CCOC(=O)c1ccc(S(=O)(=O)N(C)C)o1 [CBK264273C] | 85.0089
COc1ccc(O[C@@H]2CCCC[C@@H]2N2CCCCC2)cc1 [CBK015661C] | 72.0584
O=C(Nc1ccc(NC(=O)c2ccco2)cc1)c1ccc(N2CCOCC2)c([N+](=O)[O-])c1 [CBK268739] | 98.1189
O=C(C1CCCC1)N1CCCC1c1nnc(-c2ccsc2)o1 (centres unmarked) [CBK285506] | 80.7387
Cc1cc(Br)ccc1OCC(=O)O/N=C(\N)Cc1ccc([N+](=O)[O-])cc1 [CBK265095] | 91.4289
O=C(NCc1ccncc1)Nc1ccc([N+](=O)[O-])cc1 [CBK264319] | 124.757
COc1cc2c(cc1NC(=O)c1cc(-c3cccnc3)nc3ccc(C)cc13)oc1ccccc12 [CBK267722] | 104.34
Cn1c2c(c3ccccc31)CCOC21CCN(CC2CCCCO2)CC1 (centres unmarked) [CBK040649] | 130.082
CCC(=O)NNC(=O)c1cc(O)nc2ccccc12 [CBK263495] | 107.496
CC(C)S(=O)(=O)CC(=O)Nc1ccc(C(=O)O)cc1 [CBK020001] | 122.705
COc1ccc(S(=O)(=O)N2CCN(c3ccccc3F)CC2)cc1 [CBK070377] | 100.785
CS(=O)(=O)Nc1ccc(C(=O)Nc2ccc(S(=O)(=O)Nc3nccs3)cc2)cc1 [CBK267856] | 62.6073
Cn1ccnc1C(NC(=O)C1CCCC1)c1ccc(F)c(F)c1 (centres unmarked) [CBK283784] | 62.7603
N#Cc1ccsc1NS(=O)(=O)c1ccc(Cl)c(Cl)c1 [CBK034735] | 101.423
N#CCCN(C(=O)NCc1ccc(Cl)c(Cl)c1)C1CCCCC1 [CBK156349] | 88.7123
CC(Cn1cncn1)NC(=O)c1cccc(S(=O)(=O)NC2CCCC2)c1 (centres unmarked) [CBK304209] | 53.079
Cc1ccnc(N2CCOC3(CCCC3)C2)n1 [CBK304794] | 34.6948
O=[N+]([O-])c1ccc(Oc2cccc3cccnc23)c(F)c1 [CBK002750] | 52.1768
CC(=O)N1CCN2C(=O)c3cc(-c4ccc5c(c4)OCO5)ccc3NC(=O)[C@H]2C1 [CBK289597] | 114.861
Cc1ccc(S(=O)(=O)N2CCN(C(=O)CSc3nnc4sc5ccccc5n34)CC2)cc1 [CBK265961] | 94.5365
CC(C)c1ccc(N2C(=O)[C@@H]3C[C@@H](NC(=O)c4ccnc(Cl)c4)CCN3C2=O)cc1 [CBK289544] | 100.728
Cc1oc(CSCc2cc(C(=O)O)c(C)o2)cc1C(=O)O [CBK264291] | 110.182
c1ccc2oc(CN3Cc4nc[nH]c4C[C@H]3c3nc(-c4ccc5c(c4)OCO5)no3)cc2c1 [CBK288998] | 87.3378
O=C(Nc1cccc2c(NC(=O)C3CC3c3ccccc3)cccc12)C1CC1c1ccccc1 (centres unmarked) [CBK260911] | 91.3975
Cc1[nH]c(=O)[nH]c(=S)c1C(=O)NCc1cccc(Cl)c1C [CBK115493] | 77.8116

Structure (SMILES) | % of control remaining
CCN(CC)C(=O)c1ccc(NS(=O)(=O)c2ccc(-c3ccccc3)cc2)cc1 [CBK034395] | 94.1915
c1ccc2c(c1)nc(-c1cscn1)n2CCCCc1nnn[nH]1 [CBK267110] | 109.543
COC[C@H]1CCCN1C(=O)CC[C@H]1CNC(=O)[C@@H]2[C@@H](CCN2C2CCOCC2)N1C [CBK289037] | 113.944
COc1ccccc1-c1nccnc1OC(c1ccccc1)c1ccccc1 [CBK106813] | 94.4102
CS(=O)(=O)Nc1nccnc1N1CCN(Cc2ccc(Cl)c(Cl)c2)CC1 [CBK084267] | 56.2801
Cc1nc(C2CCN(C(=O)c3ccccn3)CC2)c2sccn12 [CBK282238] | 111.227
COc1ccc(CN(Cc2cccs2)[C@@H]2COC[C@H]2c2ccc(F)cc2)cc1 [CBK286487] | 66.4397
CCN(CC1CCN(C)C1)C(=O)c1cc(COc2cccc(F)c2)[nH]n1 (centres unmarked) [CBK307239] | 86.0106
CCOc1ccc(C(=O)Nc2ccc(Cc3ccncc3)cc2)cc1[N+](=O)[O-] [CBK262867] | 103.971
CCC(C)CC(=O)NS(=O)(=O)c1cc(C#N)ccc1C (centres unmarked) [CBK306487] | 40.0034
O=C(O)CCC(=O)Nc1nc(-c2ccc(Cl)cc2)cs1 [CBK299829] | 108.053
Cc1ccc(C(=O)NCCN2CCOCC2)cc1S(=O)(=O)N1CCCCC1 [CBK267329] | 98.846
O=C(NCc1ccco1)c1c(NC(=O)C2CCCO2)sc2c1CCC2 (centres unmarked) [CBK268180] | 101.829
C/C=C/c1ccc(OCCCSc2ccc(Cl)cc2)c(OC)c1 [CBK264147] | 118.873
FC(F)(F)Sc1ccc(COc2cccc3cccnc23)cc1 [CBK002776] | 91.6332
COc1ccc(NC(=O)COc2noc3nc(C)c(C)c(C)c23)cc1OC [CBK269526] | 98.5227
c1ccc(CC2CCN(CCC(c3ccccc3)c3ccccc3)CC2)cc1 [CBK126389] | 44.7615
O=C(COc1cccnc1)N1CCN(C(=O)c2ccco2)CC1 [CBK144482] | 114.144
COc1ccc2c(c1)OC1(CCN(C(=O)c3ccc(C(C)=O)cc3)CC1)CC2=O [CBK156457] | 87.2602
CC(C)c1nc(CCNC(=O)C2(Cn3ccnc3)CC2)no1 [CBK306828] | 82.7509
COc1ccc(CC(=O)N2CCCC2c2cccc(Cc3ccc(F)cc3)n2)cc1 (centres unmarked) [CBK286233] | 126.715
Cc1cc(S)c2cc(Br)ccc2n1 [CBK288445] | 111.006
O=C(Nc1cccc(-c2noc(Cc3ccccc3)n2)c1)c1cccs1 [CBK270244] | 60.8672
O=C1N=C(NC2CCCCCC2)SC1Cc1nc2ccccc2[nH]1 (centres unmarked) [CBK066789] | 24.3223
CC(=O)Nc1ccc(NC(=O)C2C3CCC(C3)C2C(=O)O)cc1 (centres unmarked) [CBK263534] | 108.793
